In the supplement of paper PMC10126150:
Values marked as one replicate rest on one cluster of the flow cell; about a third of the high ones do not repeat.

Tested on: ATP
Assay: switch fluorescence ratio, 500 uM ATP over buffer (Cy3 cluster intensity, sum of 5 cycles each) (fold (ratio)); higher = stronger signal-on switching upon ATP binding; sequences stand for … in TCGTCGGCAGCGTCAGATGTGTATAAGAGACAGTTTTTTTTTTTTTTTTTTTTTTTTT…TC
Details: aptamer strand: ATP DNA aptamer (quencher-CACCTGGGGGAGTATTGCGGAGGAAGG + anchor), 100 nM annealed; ATP concentration: 500 uM; one replicate
Method in brief: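 Between each of five buffer/ATP cycles, the flow-cell was stripped with NaOH and re-annealed. Each cycle imaged Cy3-labelled switching-strand clusters, annealed to 100 nM quencher-labelled ATP aptamer on a modified Illumina MiSeq flow-cell, first in selection buffer and then after 15 min with 500 uM ATP at 22 °C. The fluorescence ratio is summed target-cycle over summed buffer-cycle Cy3 intensity per cluster, averaged per switch-domain sequence, with clusters outside 100-1000 RFU excluded.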
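Also: ATP exposure 15 min at 22 °C before imaging.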

CGGAGTATGC showed a switch fluorescence ratio of 1.26.
AATCAGATCC was tested, and the switch fluorescence ratio was 1.02.
Sequence TGTTAGGTTT has a switch fluorescence ratio of 0.988.
With GTTGTTGTTC the switch fluorescence ratio was 0.959.
GTATGATAGT was tested, and the switch fluorescence ratio was 0.972.
CCCGTGTCGG was tested, and the switch fluorescence ratio was 1.06.
GACATCTGAC gave a switch fluorescence ratio of 1.04.
In the case of CCAGGCTAGC, the switch fluorescence ratio is reported as 1.03.
TAGATATCCG gave a switch fluorescence ratio of 0.986.
Work on GGAATTAAGG yielded a switch fluorescence ratio of 1.07.
TGGCAAACG was tested, and the switch fluorescence ratio was 1.
CGCTATAACA gave a switch fluorescence ratio of 1.16.
GAGTAACGTG was tested, and the switch fluorescence ratio was 0.946.
With GGTTATTAGG the switch fluorescence ratio was 0.99.
For ATGAGTCTAG, the switch fluorescence ratio was 0.963.
CCATAGTTTC showed a switch fluorescence ratio of 1.19.
With TAGACTGTA the switch fluorescence ratio was 1.04.
Sequence CCTTTTCCTT has a switch fluorescence ratio of 1.01.
AAGGGGTATG gave a switch fluorescence ratio of 1.02.
ACATTTCATT gave a switch fluorescence ratio of 1.01.
TCGAAAGCGG showed a switch fluorescence ratio of 1.
TTTCCCAC showed a switch fluorescence ratio of 1.01.
GATACAGGGC was tested, and the switch fluorescence ratio was 1.03.
For TGAAGGCAAA, the switch fluorescence ratio was 0.992.
TCTTGCTAGC was tested, and the switch fluorescence ratio was 0.989.
CTTAAGTTTG gave a switch fluorescence ratio of 0.943.
For GAACACTTCA, the switch fluorescence ratio was 1.14.
TATGCTATCT gave a switch fluorescence ratio of 0.994.
Work on GACGCAGGTA yielded a switch fluorescence ratio of 1.49.
In the case of TAGTGGTGGT, the switch fluorescence ratio is reported as 0.961.
ACGCCCAGTT gave a switch fluorescence ratio of 1.06.
With TTGTTTCGTC the switch fluorescence ratio was 1.02.
Work on CATCATGCCA yielded a switch fluorescence ratio of 1.05.
Sequence GTTTGGTCAT has a switch fluorescence ratio of 1.07.
In the case of GCCGGAGACC, the switch fluorescence ratio is reported as 0.981.
Work on AAATTTGTCT yielded a switch fluorescence ratio of 0.96.
AACTCAGAAA showed a switch fluorescence ratio of 2.77.
In the case of GATGCTCTTG, the switch fluorescence ratio is reported as 0.973.
TCATCCCGCT was tested, and the switch fluorescence ratio was 1.73.
Work on ATAGTCTGAT yielded a switch fluorescence ratio of 0.953.
CAAATTGGCA was tested, and the switch fluorescence ratio was 1.01.
Sequence GCGGGTTTAA has a switch fluorescence ratio of 1.02.
Work on CGCGGACCAG yielded a switch fluorescence ratio of 1.
Work on AAGGCCGTGT yielded a switch fluorescence ratio of 1.
CCGGTGACAA gave a switch fluorescence ratio of 2.96.
In the case of GCATACCCTT, the switch fluorescence ratio is reported as 1.09.
With GCCTACCCGT the switch fluorescence ratio was 1.11.
With AGGCATCGGG the switch fluorescence ratio was 1.02.
CACTGGCCCT was tested, and the switch fluorescence ratio was 1.05.
Sequence CGAGTTTAGT has a switch fluorescence ratio of 1.11.
For CCGGTGACTC, the switch fluorescence ratio was 1.88.
GCTGCTCACG gave a switch fluorescence ratio of 1.02.
With TCAGGCAGAT the switch fluorescence ratio was 0.956.
For TTATAAGCCC, the switch fluorescence ratio was 1.04.
ATAGCCCTGC showed a switch fluorescence ratio of 1.04.
Sequence GCTTTGGGTA has a switch fluorescence ratio of 1.01.
Work on TCATGGTATC yielded a switch fluorescence ratio of 0.978.
Work on ATGGATTTCT yielded a switch fluorescence ratio of 0.991.
CGTAACCAGT gave a switch fluorescence ratio of 0.996.
For TGAGGTCGAA, the switch fluorescence ratio was 0.964.
In the case of CTTACTGCCG, the switch fluorescence ratio is reported as 1.05.
ATCGGGAGCA was tested, and the switch fluorescence ratio was 1.57.
Work on GTTATGCTGT yielded a switch fluorescence ratio of 1.07.
Work on TAGAATATCT yielded a switch fluorescence ratio of 0.937.
With AAACGATGTC the switch fluorescence ratio was 0.968.
Work on AGAGTACACT yielded a switch fluorescence ratio of 1.
AATGCTGAGC gave a switch fluorescence ratio of 1.
Work on CCGGGTTCT yielded a switch fluorescence ratio of 1.03.
GTCGTGAGTG gave a switch fluorescence ratio of 1.01.
Sequence CTTCACTGCG has a switch fluorescence ratio of 1.09.
With GATCGCCATA the switch fluorescence ratio was 1.05.
GGCCGGTCAA was tested, and the switch fluorescence ratio was 0.936.
In the case of CGTTAACCTC, the switch fluorescence ratio is reported as 1.05.
TCAATCCAC showed a switch fluorescence ratio of 1.07.
For TCTCAGGCT, the switch fluorescence ratio was 1.03.
Sequence GCTAGGAGAG has a switch fluorescence ratio of 1.01.
In the case of AGGCGACTTT, the switch fluorescence ratio is reported as 0.992.
TGCGCATAAC showed a switch fluorescence ratio of 3.47.
Work on ACGATTTCCG yielded a switch fluorescence ratio of 0.938.
In the case of ACATTCAGCT, the switch fluorescence ratio is reported as 1.02.
Work on GGTTGGGTCG yielded a switch fluorescence ratio of 0.953.
For AACTAGCACA, the switch fluorescence ratio was 1.09.
With TCGACGACA the switch fluorescence ratio was 1.18.
With AGTATAGGCC the switch fluorescence ratio was 0.929.
GTTTACTCGA gave a switch fluorescence ratio of 1.01.
With GACACTTGTC the switch fluorescence ratio was 1.03.
GACTGAATAG gave a switch fluorescence ratio of 1.02.
With ATCTCGTCC the switch fluorescence ratio was 1.
Work on CGTCAAAGGT yielded a switch fluorescence ratio of 1.
TCATATGCAC showed a switch fluorescence ratio of 1.62.
Sequence TAGGTCCGCA has a switch fluorescence ratio of 1.75.
ACCACTATCG was tested, and the switch fluorescence ratio was 1.05.
GCTATTTCTT was tested, and the switch fluorescence ratio was 1.03.
GATAAATCTC gave a switch fluorescence ratio of 0.992.
With CCCCCACTGC the switch fluorescence ratio was 2.69.
TGATTGCCAG gave a switch fluorescence ratio of 1.03.
For GTGTTTGGG, the switch fluorescence ratio was 0.981.
In the case of TGGTCCGTCG, the switch fluorescence ratio is reported as 1.08.
ATTTGGACCC gave a switch fluorescence ratio of 1.03.
For CTCGGGTGCC, the switch fluorescence ratio was 1.03.
In the case of TGGTTCATGG, the switch fluorescence ratio is reported as 1.14.
AAGAATCAGG showed a switch fluorescence ratio of 1.
ATCTTCAACC gave a switch fluorescence ratio of 1.05.
With TTCACTAGTC the switch fluorescence ratio was 1.
For TTCATGTGCG, the switch fluorescence ratio was 0.946.
ATACTTATTC was tested, and the switch fluorescence ratio was 1.02.
AGAAGAATAT was tested, and the switch fluorescence ratio was 0.997.
TTTGCAGTGG showed a switch fluorescence ratio of 1.03.
Work on TATGCAAAAG yielded a switch fluorescence ratio of 1.02.
ATATTAGGTG was tested, and the switch fluorescence ratio was 1.18.
TGAAGAAAAC showed a switch fluorescence ratio of 1.03.
Sequence TCGTAGTTTT has a switch fluorescence ratio of 0.983.
For CTAACCCTGT, the switch fluorescence ratio was 1.03.
Work on GATTGAGACC yielded a switch fluorescence ratio of 1.01.
In the case of GCCTGCTGTG, the switch fluorescence ratio is reported as 1.02.
For ACTCTAGTGA, the switch fluorescence ratio was 0.979.
For CCTATGCTAG, the switch fluorescence ratio was 1.34.
With CATCACTTTT the switch fluorescence ratio was 1.04.
TTCATTCTTT was tested, and the switch fluorescence ratio was 0.978.
In the case of ACCATGCGCA, the switch fluorescence ratio is reported as 1.04.
CGATTGGACG showed a switch fluorescence ratio of 1.16.
TGAGGTCCAG was tested, and the switch fluorescence ratio was 0.989.
TTATGTCAAG gave a switch fluorescence ratio of 1.01.
CCTGGTCTCG was tested, and the switch fluorescence ratio was 0.994.
Sequence GCAAAGTGAG has a switch fluorescence ratio of 1.01.
With TCGTGTTGAC the switch fluorescence ratio was 0.995.
In the case of AGTCACTTAA, the switch fluorescence ratio is reported as 1.04.
TATTTCGCCT gave a switch fluorescence ratio of 1.05.
For TGCTTCTGGA, the switch fluorescence ratio was 1.01.
In the case of TAAGCCAGG, the switch fluorescence ratio is reported as 1.06.
For GCCAAAACGG, the switch fluorescence ratio was 1.03.
For TTGTAGATGA, the switch fluorescence ratio was 0.996.
CGGTCTAGGT showed a switch fluorescence ratio of 0.983.
GGCGCCGGTC showed a switch fluorescence ratio of 0.953.
With AACGAACCTT the switch fluorescence ratio was 1.78.
AGCTTGTGCA gave a switch fluorescence ratio of 0.992.
Work on AGTTGGGCC yielded a switch fluorescence ratio of 1.03.
CATAAATAAG gave a switch fluorescence ratio of 0.97.
GGCGAGAAGG showed a switch fluorescence ratio of 0.989.
In the case of TAAGTGGTAG, the switch fluorescence ratio is reported as 1.01.
ATGACTATTG was tested, and the switch fluorescence ratio was 0.995.
TTTAAAGGAA gave a switch fluorescence ratio of 0.969.
TTTGGGCAGG gave a switch fluorescence ratio of 1.01.
With CTTGAATACG the switch fluorescence ratio was 1.11.
For ACCAGGCTAT, the switch fluorescence ratio was 1.05.
In the case of AATGGGTGT, the switch fluorescence ratio is reported as 1.01.
With CAGGACAATT the switch fluorescence ratio was 1.02.
Sequence TCGACGGCGC has a switch fluorescence ratio of 1.16.
AGTTTGCAT was tested, and the switch fluorescence ratio was 0.963.
With CGCATCTGAT the switch fluorescence ratio was 0.983.
For TGGATTGATC, the switch fluorescence ratio was 0.965.
TGCGTTATC was tested, and the switch fluorescence ratio was 1.42.
Sequence ATAAAATTG has a switch fluorescence ratio of 1.01.
With GACTCTCAGC the switch fluorescence ratio was 1.05.
AGCCCCAAGT was tested, and the switch fluorescence ratio was 1.
In the case of TACGAAAAAT, the switch fluorescence ratio is reported as 1.18.
In the case of TAATTTCCAA, the switch fluorescence ratio is reported as 0.999.
